{
  "source": "PubChem BioAssay AID485294",
  "about": "(National Center for Advancing Translational Sciences (NCATS), 2010)",
  "note": "Among all 370,000 compounds or so, about 150 (0.041%) were called active. The shares of active, inactive and inconclusive entries below differ from those in the screen. The call rests on the fitted dose curve; in most records, active means well fitted inhibition curve with a large enough effect; inconclusive means small, poorly fitted or top-dose-only effect; inactive means flat fitted curve, though single readings scatter. No potency is given beside an inconclusive call; the fits are too rough. Potency means the concentration at half of the fitted maximal effect; tags describe the fitted curve by direction and shape.",
  "data": [
    {"target": "Beta-lactamase (Escherichia coli (strain K12)) (UniProt P00811)", "sequence (P00811 whole entry, looked up)": "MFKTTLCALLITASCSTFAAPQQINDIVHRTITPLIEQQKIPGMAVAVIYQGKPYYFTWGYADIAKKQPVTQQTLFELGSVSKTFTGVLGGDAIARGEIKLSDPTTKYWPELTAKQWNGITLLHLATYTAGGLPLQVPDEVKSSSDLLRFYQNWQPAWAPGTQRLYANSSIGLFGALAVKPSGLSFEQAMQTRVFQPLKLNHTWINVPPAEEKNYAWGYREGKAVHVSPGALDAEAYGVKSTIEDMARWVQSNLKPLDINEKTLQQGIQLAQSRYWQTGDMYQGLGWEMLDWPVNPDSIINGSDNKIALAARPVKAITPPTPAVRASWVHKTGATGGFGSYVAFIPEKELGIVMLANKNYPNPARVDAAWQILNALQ", "assay": "qHTS Inhibitors of AmpC Beta-Lactamase (assay with detergent); further: nearly all actives have a fitted effect of over 25% in size", "conditions": "AmpC hydrolysis of nitrocefin, absorbance 480 nm, 0.01% Triton; series mostly up to 114 µM", "how_it_was_run": "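20 mM phosphate pH 7.0 + 0.01% (detergent screen) or 0.0001% Triton X-100; 5.3 nM AmpC reagent; cpd preinc 15 min RT; nitrocefin (800 uM stock) to start; A480 q20 s × 4 min; Activity was normalised to no-enzyme and no-compound control wells.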", "values": [
      {"smiles": "COc1ccc(NC(=O)CCC(=O)Nc2nnc(CC(C)C)s2)cc1Cl", "Potency": "inconclusive [inhibitor, full curve, poor fit]"},
      {"smiles": "CCN(CC)CC(=O)NCC1(c2ccccc2)CCOCC1", "Potency": "inconclusive [inhibitor, full curve]"},
      {"smiles": "C[C@]12C=CC(=O)C=C1CC[C@@H]1C2CC[C@]2(C)OC(=O)CCC12", "note": "(stereo partly specified)", "Potency": "inconclusive [inhibitor, full curve, poor fit]"},
      {"smiles": "CCC1CCc2sc(C(=O)NNC(=O)c3ccncc3)cc2C1", "note": "(stereo unspecified)", "Potency": "inconclusive [inhibitor, full curve, poor fit]"},
      {"smiles": "Cc1ccc(S(=O)(=O)NC(C)(C)CSc2ccccn2)cc1", "Potency": "inconclusive [inhibitor, partial curve, poor fit]"},
      {"smiles": "C/C=C\\C=C/C(=O)Nc1cccc(C2=NOC3(C2)C[C@@H](C(N)=O)N(C(=O)[C@H]2CCC(=O)N2)C3)c1", "note": "(stereo partly specified)", "Potency": "inactive"},
      {"smiles": "CCOC(=O)C1CCN(S(=O)(=O)c2ccc(C(=O)OC)cc2)CC1", "Potency": "inconclusive [inhibitor, full curve, poor fit]"},
      {"smiles": "Cc1ccc(CSc2nnnn2C)cc1", "Potency": "inconclusive [inhibitor, full curve, poor fit]"},
      {"smiles": "Cc1oc(-c2ccccc2)nc1Cn1cccc1C1=NC(c2ccccc2)CO1", "note": "(stereo unspecified)", "Potency": "inactive"},
      {"smiles": "COc1ccc(C(=O)/C=C/c2ccc(OC)c(COc3ccccc3F)c2)cc1", "Potency": "inconclusive [inhibitor, full curve, poor fit]"},
      {"smiles": "Cc1c(-c2ccccc2)nc(-c2ccccc2)[nH]c1=O", "Potency": "inconclusive [inhibitor, full curve, poor fit]"},
      {"smiles": "Cc1cccc(C)c1NC(=O)C1(N(Cc2ccco2)C(=O)c2ccccn2)CCCC1", "Potency": "inconclusive [inhibitor, single point]"},
      {"smiles": "O=C(CCN1CCCCC1)Nc1cccc(Br)c1", "Potency": "inconclusive [inhibitor, partial curve]"},
      {"smiles": "CN1CCc2ccccc2C1C1CCNCC1", "note": "(stereo unspecified)", "Potency": "inconclusive [inhibitor, full curve, poor fit]"},
      {"smiles": "CCOC(=O)C(Sc1nnc2c3ccccc3n(CC)c2n1)C(=O)OCC", "Potency": "inconclusive [inhibitor, full curve]"},
      {"smiles": "Cc1ccc2c(c1)c1c(c(=O)n(-c3ccccc3C)c(=O)n1CC(=O)NCc1ccccc1)n2C", "Potency": "inconclusive [inhibitor, single point]"},
      {"smiles": "COc1ccccc1-c1cc(C(F)(F)F)nc(S(=O)(=O)CCCC(=O)Nc2cc(OC)c(OC)c(OC)c2)n1", "Potency": "inactive"},
      {"smiles": "Cn1cc(SCC(=O)N2CCN(c3ccccc3)CC2)c2ccccc21", "Potency": "inconclusive [inhibitor, full curve, poor fit]"},
      {"smiles": "CC(C)(Oc1ccc(Cl)cc1)C(=O)O", "Potency": "inconclusive [inhibitor, full curve, poor fit]"},
      {"smiles": "O=C(CNC(=O)c1nc[nH]c1C(=O)N1CCNCC1)OCc1ccccc1", "Potency": "inconclusive [inhibitor, full curve, poor fit]"},
      {"smiles": "OCCOCCNc1ncnc2nc[nH]c12", "Potency": "inconclusive [inhibitor, full curve, poor fit]"},
      {"smiles": "CC(=O)OC(C(=O)NCc1ccco1)c1cccnc1", "note": "(stereo unspecified)", "Potency": "inconclusive [inhibitor, full curve]"},
      {"smiles": "CC(C)Cn1c(SCC(=O)N(C)c2c(N)n(Cc3ccccc3)c(=O)[nH]c2=O)nc2ccccc21", "Potency": "inconclusive [inhibitor, full curve]"},
      {"smiles": "CC(C)Nc1nc2c(c(=O)n(C)c(=O)n2C)n1C", "Potency": "inactive"},
      {"smiles": "Cc1ccc(NCc2ccccc2-c2nnc(-c3ccccc3Cl)o2)c(C)c1", "Potency": "inactive"},
      {"smiles": "O=C(Nn1c(=O)[nH]c2ccsc2c1=O)c1ccccc1", "Potency": "inconclusive [inhibitor, full curve]"},
      {"smiles": "COc1cc2c(cc1NC(=O)C(C)Sc1nc3ccccc3n1C)oc1ccccc12", "note": "(stereo unspecified)", "Potency": "inactive"},
      {"smiles": "CCS(=O)(=O)c1ncc(Cl)c(C(=O)N2CCN(c3cccc(Cl)c3)CC2)n1", "Potency": "inactive"},
      {"smiles": "COC(=O)c1c(C(=O)OC)c2n(c1C)Cc1ccccc1C2", "Potency": "inconclusive [inhibitor, partial curve, poor fit]"},
      {"smiles": "Fc1ccc(C(c2nnnn2Cc2ccccc2)N2CCSCC2)cc1", "note": "(stereo unspecified)", "Potency": "inactive"},
      {"smiles": "COc1ccc(-c2nnc3c4ccccc4c(C)nn23)cc1S(=O)(=O)N1CCN(CCO)CC1", "Potency": "inconclusive [inhibitor, single point]"},
      {"smiles": "CCOC(=O)c1c(C)n(Cc2ccccc2)c2ccc(O)cc12", "Potency": "inactive"},
      {"smiles": "CCOc1ccccc1CN1CCN(Cc2cc(=O)c3ccccc3[nH]2)CC1CCO", "note": "(stereo unspecified)", "Potency": "inconclusive [inhibitor, partial curve, poor fit]"},
      {"smiles": "COc1ccc(C2=NN(c3ccc(C=O)cc3)C(c3ccccc3)C2)cc1", "note": "(stereo unspecified)", "Potency": "inconclusive [inhibitor, full curve]"},
      {"smiles": "O=C(CSc1nnc(-c2cccnc2)s1)Nc1ccnc2ccccc12", "Potency": "inconclusive [inhibitor, full curve]"},
      {"smiles": "O=C(Cc1ccccc1)Oc1ccc(N2C(=O)C3CCCCC3C2=O)cc1", "note": "(stereo unspecified)", "Potency": "inconclusive [inhibitor, full curve, poor fit]"},
      {"smiles": "COc1cccc(/C=N/NC(=O)c2cc3c(OC)cccc3[nH]2)c1O", "Potency": "inconclusive [inhibitor, partial curve, poor fit]"},
      {"smiles": "O=C(c1ccc(F)cc1)N1CCC(C(=O)N2CCN(S(=O)(=O)c3cccc(Cl)c3)CC2)CC1", "Potency": "inconclusive [inhibitor, partial curve, poor fit]"},
      {"smiles": "Cc1cc(C2C(C#N)=C(N)Oc3n[nH]c(C)c32)c(C)s1", "note": "(stereo unspecified)", "Potency": "inconclusive [inhibitor, full curve, poor fit]"},
      {"smiles": "CCOc1ccc(CCNC(=O)c2cccc(S(=O)(=O)N3CCOCC3)c2)cc1OCC", "Potency": "inconclusive [inhibitor, full curve, poor fit]"},
      {"smiles": "COc1cccc2cc(C(=O)NCc3ccccn3)c(=O)oc12", "Potency": "inconclusive [inhibitor, partial curve]"},
      {"smiles": "CC(C)C(=O)O/N=C(\\N)c1ccc(Oc2ccc(Cl)cc2)c([N+](=O)[O-])c1", "Potency": "inactive"},
      {"smiles": "Cc1ccc(N(C(=O)c2ccc(Br)o2)C2C=CS(=O)(=O)C2)cc1", "note": "(stereo unspecified)", "Potency": "inconclusive [inhibitor, full curve, poor fit]"},
      {"smiles": "CCCSc1nsc(NC(=O)Nc2ccc(F)cc2F)n1", "Potency": "inconclusive [inhibitor, partial curve]"},
      {"smiles": "CCOCCCNC(=O)c1cc2c(-c3ccc(OC)c(OC)c3)nn(C)c2s1", "Potency": "inactive"},
      {"smiles": "O=C(CN1C(=O)NC2(CCCC2)C1=O)NCCN1C(=O)S/C(=C\\c2ccccc2F)C1=O", "Potency": "inconclusive [inhibitor, full curve, poor fit]"},
      {"smiles": "Cc1ccn2c(=O)nc(SCC(=O)N3CCN(c4ccccc4)CC3)nc2c1", "Potency": "inconclusive [inhibitor, full curve]"},
      {"smiles": "CC(C)(C)OC(=O)N1CCC(c2c(C(=O)NCc3cccs3)cnn2-c2ccc(F)cc2F)CC1", "Potency": "inactive"},
      {"smiles": "CCOc1ccccc1N(CC(=O)N1CCOCC1)S(=O)(=O)c1ccc(SC)cc1", "Potency": "inconclusive [inhibitor, partial curve]"},
      {"smiles": "COc1ccc(C(=O)COC(=O)c2cncc(Br)c2)cc1", "Potency": "inconclusive [inhibitor, partial curve, poor fit]"},
      {"smiles": "CC(=O)N1CCN(CC(O)Cn2c3ccccc3c3ccccc32)CC1", "note": "(stereo unspecified)", "Potency": "inconclusive [inhibitor, full curve, poor fit]"},
      {"smiles": "Cc1c2cnn(CC(=O)NCc3ccc(F)cc3)c(=O)c2c(C)n1Cc1ccccc1F", "Potency": "inactive"},
      {"smiles": "COc1ccc(-n2c(Cc3cccn3C)nnc2SCC(=O)Nc2ccccc2C)cc1", "Potency": "inconclusive [inhibitor, single point]"},
      {"smiles": "CNC(=O)c1ccccc1S(=O)c1ccccc1C#N", "note": "(stereo unspecified)", "Potency": "inconclusive [inhibitor, partial curve]"},
      {"smiles": "CSc1ccc(-c2nc3ncccn3c2Nc2ccc(C)c(C)c2)cc1", "Potency": "inactive"},
      {"smiles": "Cc1ccc(C(=O)Nc2ccc3c(c2)C(=O)NC3=O)cc1", "Potency": "inconclusive [inhibitor, full curve, poor fit]"},
      {"smiles": "COc1cc(OC)cc(C(=O)NCCN2C(=O)S/C(=C\\c3cccs3)C2=O)c1", "Potency": "inactive"},
      {"smiles": "O=C(/C=C/c1ccccc1)Nc1ccc(C(=O)N2CCCCC2)cc1", "Potency": "inactive"},
      {"smiles": "O=C(CC(=O)N/N=C/c1cccs1)NCc1ccccc1", "Potency": "inconclusive [inhibitor, partial curve, poor fit]"},
      {"smiles": "CC(=O)c1ccc(NC(=O)Nc2nnc(N3CCCC(C)C3)s2)cc1", "note": "(stereo unspecified)", "Potency": "inactive"},
      {"smiles": "O=C(CCCc1ccccc1)NC1CCSC1=O", "note": "(stereo unspecified)", "Potency": "inconclusive [inhibitor, full curve, poor fit]"},
      {"smiles": "Cc1ccccc1-n1c(=O)cc(N2CCc3ccccc32)[nH]c1=O", "Potency": "inconclusive [inhibitor, partial curve, poor fit]"},
      {"smiles": "O=c1c(-c2ccc(Cl)cc2)c[nH]n1-c1ccccc1", "Potency": "inactive"},
      {"smiles": "O=c1[nH]c2ccc(Cl)cc2c(-c2ccccc2)c1CN1CCOCC1", "Potency": "inconclusive [inhibitor, full curve, poor fit]"},
      {"smiles": "CN(C)S(=O)(=O)c1ccc(C(=O)Nc2ccccc2OC(F)(F)C(F)F)cc1", "Potency": "inconclusive [inhibitor, partial curve, poor fit]"},
      {"smiles": "CCOC(=O)NC(=O)CSc1ccc2ccccc2n1", "Potency": "inconclusive [inhibitor, partial curve, poor fit]"}
    ]}
  ]
}
